Data taken from patent publication US6750224B1, “Antibacterial optically pure benzoquinolizine carboxylic acids, processes, compositions and methods of treatment” (priority 1999, dated 2004).

test system: S. aureus strain 042; settings: after six passages in drug containing media
Description: […] . In studies, which mimic the clinical scenario, S-(−)-Nadifloxacin was evaluated in comparison with trovafloxacin and gatifloxacin by sequential transfer/passages through respective drug containing media. […] . In clinical settings, the ability of pathogenic bacteria to select a drug resistant variant/subcldne while the patient is on antibacterial drug therapy often determines the outcome of the therapy.

Structure (SMILES)	rise in MIC value
N[C@@H]1[C@H]2CN(c3nc4c(cc3F)c(=O)c(C(=O)O)cn4-c3ccc(F)cc3F)C[C@@H]12 [Trovafloxacin, trovafloxacin]	approximately 300%
COc1c(N2CCNC(C)C2)c(F)cc2c(=O)c(C(=O)O)cn(C3CC3)c12 (stereo not drawn) [Gatifloxacin]	~700%
C[C@H]1CCc2c(N3CCC(O)CC3)c(F)cc3c(=O)c(C(=O)O)cn1c23 [S-(−)-Nadifloxacin, S-(−)-9-fluoro-8-(4-hydroxy-piperidin-1-yl)-5-methyl-6,7-dihydro-1-oxo-1H,5H benzo[i,j]quinolizine-2-carboxylic acid]	4%
